Out of some 410,000 compounds screened, about 6,400 (1.6%) were called active. The inconclusive results got no clear call from the source; some entries with a clear call stand among them for comparison. The call rests on the fitted dose curve; in most records, active means well fitted inhibition curve with a large enough effect; inconclusive means small, poorly fitted or top-dose-only effect; inactive means no such curve, though single readings can be large or run the other way. Potencies of inconclusive entries are left out as doubtful fits.
The compounds below were run against Glucagon-like peptide 1 receptor (Homo sapiens) (UniProt P43220) (assay: qHTS of GLP-1 Receptor Inverse Agonists (Inhibition Mode)). Conditions: HEK293 GLP-1R CRE-luciferase, luminescence, 24 h, GLP-1R form is constitutively active; activity change, negative = inhibition: at 38.3 µM (top of the series) unless noted.
Chain of UniProt P43220 (P43220 whole entry, looked up): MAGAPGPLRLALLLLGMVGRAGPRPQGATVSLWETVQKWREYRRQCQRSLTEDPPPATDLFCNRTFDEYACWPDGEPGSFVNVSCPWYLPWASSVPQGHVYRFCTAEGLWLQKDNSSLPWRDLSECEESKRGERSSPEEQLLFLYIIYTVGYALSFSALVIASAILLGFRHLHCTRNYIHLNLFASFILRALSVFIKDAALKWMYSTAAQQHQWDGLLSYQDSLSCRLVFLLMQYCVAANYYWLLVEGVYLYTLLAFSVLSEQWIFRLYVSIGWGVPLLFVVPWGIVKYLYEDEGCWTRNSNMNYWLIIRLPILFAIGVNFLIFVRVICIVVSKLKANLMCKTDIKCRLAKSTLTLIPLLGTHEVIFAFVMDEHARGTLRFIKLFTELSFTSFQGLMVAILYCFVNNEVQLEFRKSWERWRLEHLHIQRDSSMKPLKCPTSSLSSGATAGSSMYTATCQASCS
How it was run: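 Assay principle: reduced luminescence from a cAMP-responsive reporter in HEK293 cells co-expressing a constitutively active GLP-1R. Conditions: 24 hr compound incubation, 37 deg C, 5% CO2.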
For `O=C(CC(c1ccccc1)c1ccccc1O)NCc1ccccc1` (centres undefined), the Potency was inconclusive [inhibitor, full curve, poor fit]. `CCOc1ccc(-c2noc(CCC(=O)NC3CCCC3)n2)cc1OC` was tested, and the “activity change, negative = inhibition” value was inactive: 2.22%. With `CC(C)N1CCc2c(sc(NC(=O)CCS(=O)(=O)c3ccccc3)c2C#N)C1` the “activity change, negative = inhibition” value was inactive: -6.12%. For `O=C(NN=C(c1ccccc1)c1ccccn1)c1ccccc1`, the Potency was inconclusive [inhibitor, partial curve, poor fit]. For `Cn1c2ccccc2c2ncn(CCN3CCOCC3)c(=O)c21`, the “activity change, negative = inhibition” value was inactive: 16.7%. For `CN(C)CCn1c(=S)[nH]c2ncccc2c1=O`, the “activity change, negative = inhibition” value was inactive: 3.52%. `Nc1ncc(Br)cc1S(=O)(=O)Nc1cc(C(F)(F)F)cc(C(F)(F)F)c1` was tested, and the Potency was inconclusive [inhibitor, partial curve, poor fit]. With `CCOc1ccc(Nc2ccnc3cc(Cl)ccc23)cc1` the Potency was inconclusive [inhibitor, partial curve, poor fit]. In the case of `Cc1ccn2c(Nc3ccccc3)c(-c3c[nH]c4ccccc34)nc2c1`, the Potency is reported as inconclusive [inhibitor, single point]. For `CCCc1cc(C(=O)N2CCCC(C(=O)c3ccc(Cl)cc3)C2)n(C)n1` (centres undefined), the Potency was inconclusive [inhibitor, partial curve, poor fit]. With `Cc1ccc(-c2cc(C(F)(F)F)n3ncc(C(=O)NCc4ccco4)c3n2)cc1` the Potency was inconclusive [inhibitor, full curve, poor fit]. In the case of `COc1ccccc1Nc1nn2c(=O)c3ccc(C(=O)NCCc4ccccc4)cc3nc2s1`, the Potency is reported as inconclusive [inhibitor, full curve, poor fit]. `Cc1ccc(N2CCN(c3nc4ccc(C(=O)c5ccccc5)cc4n4cnnc34)CC2)c(C)c1` was tested, and the “activity change, negative = inhibition” value was inactive: 15.9%. For `COc1ccc(CCNc2oc(COc3ccccc3)nc2C#N)cc1`, the Potency was inconclusive [inhibitor, single point]. `COc1cccc(=O)c2c(C)n(CC(=O)c3ccccc3)c(C)c12` was tested, and the Potency was inconclusive [inhibitor, partial curve]. `O=C(Cc1coc2ccc3ccccc3c12)Nc1nccs1` was tested, and the Potency was inconclusive [inhibitor, partial curve, poor fit]. In the case of `O=C(NCCn1cc(SCc2ccccc2)c2ccccc21)c1c(F)cccc1F`, the Potency is reported as active: 10 µM. In the case of `CCCCN(C(=O)NC(=O)C1=C(N2CCOCC2)/C(=C/c2ccccc2)CC1)S(C)(=O)=O`, the “activity change, negative = inhibition” value is reported as inactive: 11.8%. `CCCc1nc(SCC(=O)N2CCc3ccccc3C2)c2ccccc2n1` was tested, and the Potency was inconclusive [inhibitor, single point]. In the case of `COC(=O)c1sccc1NC(=S)N(C)C1CCCCC1`, the Potency is reported as inconclusive [inhibitor, partial curve, poor fit]. In the case of `COc1cccc(N2CCN(C(=O)c3ccc4nc(N5CCC(C)CC5)sc4c3)CC2)c1`, the Potency is reported as inconclusive [inhibitor, single point]. In the case of `OCCn1c(CSc2nnc(-c3ccco3)n2-c2ccccc2)nc2ccc(Cl)cc21`, the Potency is reported as inconclusive [inhibitor, single point]. With `CCOc1nc(CC(C)C)c2c(c1C#N)CC(C)(C)OC2` the Potency was inconclusive [inhibitor, single point]. For `O=C(CSc1nnnn1-c1ccccc1)Nc1ncc(Cc2ccccc2Cl)s1`, the Potency was inconclusive [inhibitor, partial curve]. `CCOC(=O)c1c(C)[nH]c(C(=O)CSc2ccccc2)c1C` was tested, and the Potency was inconclusive [inhibitor, single point]. In the case of `Cc1cc(C(=O)OCC(=O)NCc2ccco2)c(C)n1-c1ccc(F)cc1`, the Potency is reported as inconclusive [inhibitor, partial curve, poor fit]. In the case of `CNc1ncc(C(=O)c2ccc(F)cc2)s1`, the “activity change, negative = inhibition” value is reported as inactive: 21.6%. In the case of `CCc1ccc(/C=C2\SC(=S)N(CCCC(=O)Nc3ccccn3)C2=O)cc1`, the Potency is reported as inconclusive [inhibitor, partial curve, poor fit]. For `CCOc1ccc(N(CC(=O)NCc2ccc(F)cc2)C(=O)CCC(=O)Nc2nccs2)cc1`, the Potency was inconclusive [inhibitor, single point]. `COc1cc(Cl)c(C)cc1NC(=O)CSc1cc(Cl)ccc1Cl` was tested, and the Potency was inconclusive [inhibitor, partial curve, poor fit]. `O=C(Nc1nc2ccccc2[nH]1)c1cccc(F)c1` was tested, and the Potency was inconclusive [inhibitor, single point]. In the case of `COc1cc(/C=C(/C#N)c2nc3ccccc3[nH]2)ccc1OCC(=O)Nc1ccccc1C(C)C`, the Potency is reported as inconclusive [inhibitor, full curve, poor fit]. For `O[C@@H]1C[C@H](c2ccc(Cl)cc2)N(Cc2cccs2)C[C@H]1n1cc(-c2ccc(F)cc2)nn1`, the Potency was inconclusive [inhibitor, partial curve]. For `O=C(NCc1ccccc1Cl)C1=Cc2cc(Br)ccc2OC1`, the Potency was inconclusive [inhibitor, single point]. For `CCN1CCN(CCCNC(=O)Cn2nc(C)n3c(cc4c(OC)cccc43)c2=O)CC1`, the “activity change, negative = inhibition” value was inactive: 0.266%. In the case of `COc1ccccc1-c1nn(CCC(=O)Nc2ccc(C)cc2)c2nc(C)cc(C)c12`, the Potency is reported as inconclusive [inhibitor, single point]. In the case of `FC(F)(F)c1cccc(N2CCN(c3nnnn3-c3ccccc3)CC2)c1`, the Potency is reported as inconclusive [inhibitor, single point]. In the case of `CCS(=O)(=O)c1nc(S(=O)(=O)c2ccc(Cl)cc2)c(N2CCN(C)CC2)s1`, the Potency is reported as inconclusive [inhibitor, partial curve, poor fit]. `CCOc1ccccc1C=NN=Cc1ccccc1O` was tested, and the “activity change, negative = inhibition” value was inactive: 5.08%. In the case of `Nc1ccc(-n2cc(-c3ccccc3)[nH]c2=S)cc1`, the “activity change, negative = inhibition” value is reported as inactive: 19.4%. In the case of `CC(C)=CCN1CCN(Cc2cccn2-c2nccs2)CC1CCO` (centres undefined), the activity change, negative = inhibition is reported as inconclusive: -36.1% [inhibitor]. In the case of `Cc1cc(Cl)c(OCCOCCN2CCNCC2)c(Cl)c1`, the Potency is reported as inconclusive [inhibitor, partial curve, poor fit]. In the case of `CSc1ncc(C(=O)Nc2cc(C)ccc2C)c(C)n1`, the “activity change, negative = inhibition” value is reported as inactive: 1.05%. In the case of `Cc1cccc(OCC(O)CN2C(C)(C)CC(O)CC2(C)C)c1` (centres undefined), the Potency is reported as inconclusive [inhibitor, single point]. With `CCCCOc1ccc(C(=O)NNC(=O)C2C3CCC(C3)C2C(=O)O)cc1` (centres undefined) the Potency was inconclusive [inhibitor, single point]. `O=C(CCCN1C(=O)C(c2ccccc2)Oc2cccnc21)Nc1ccccc1Cl` (centres undefined) was tested, and the Potency was inconclusive [inhibitor, single point]. `COCCCNC(=S)N1CCN(c2nc(-c3cccc(OC)c3)cs2)CC1` was tested, and the Potency was inconclusive [inhibitor, single point]. `O=C(CN1CCC(Cc2ccccc2)CC1)Nc1ccc2c(c1)OCCO2` was tested, and the Potency was inconclusive [inhibitor, single point]. In the case of `Cc1cccc(Nc2nc(-c3ccccc3)nc3ccccc23)c1`, the Potency is reported as inconclusive [inhibitor, single point]. In the case of `CC1CCCN(c2ccc(C(=O)Nc3cccnc3)cc2[N+](=O)[O-])C1` (centres undefined), the Potency is reported as inconclusive [inhibitor, partial curve, poor fit]. `O=C(CSC1=NCCN1)Nc1ccccc1[N+](=O)[O-]` was tested, and the Potency was inconclusive [inhibitor, full curve]. `O=C(Nc1cccc(S(=O)(=O)N2CCCCCC2)c1)C1CCN(C(=O)c2ccc(F)cc2)CC1` was tested, and the Potency was inconclusive [inhibitor, single point]. In the case of `CC(C)Cn1c(O)c(N=NC(=O)c2cccc(S(=O)(=O)N3CCCCC3)c2)c2ccccc21`, the Potency is reported as inconclusive [inhibitor, full curve, poor fit]. In the case of `CC1=CS/C(=C(/C#N)C(=O)N2CCCCC2)N1c1ccccc1`, the “activity change, negative = inhibition” value is reported as inactive: 3.09%. In the case of `Fc1ccc(-n2cc(CNCCc3ccccn3)c(-c3ccccc3Cl)n2)cc1`, the Potency is reported as inconclusive [inhibitor, partial curve, poor fit]. For `Cc1nc(NC(=O)c2ccccc2)sc1C1(C)CC(c2ccccc2F)=NO1` (centres undefined), the Potency was inconclusive [inhibitor, partial curve]. `CN(C)CCCN(C(=O)CCc1ccccc1)c1nc2ccc(F)cc2s1` was tested, and the Potency was inconclusive [inhibitor, single point]. For `Cn1c(=O)c2c(SCc3cccnc3)nc(CC(C)(C)C)nc2n(C)c1=O`, the Potency was inconclusive [inhibitor, single point]. For `Cn1c(SCCCC(=O)c2ccc(F)cc2)nnc1-c1ccncc1`, the Potency was inconclusive [inhibitor, full curve, poor fit]. With `COc1ccc(C2C(C(=O)Nc3ccccc3)=C(C)Nc3nc(-c4ccc(Cl)cc4)nn32)cc1` (centres undefined) the Potency was inconclusive [inhibitor, partial curve, poor fit]. For `COC(=O)Cc1c(CSc2ccccc2)oc2ccc(O)c(CN(C)C)c12`, the Potency was inconclusive [inhibitor, partial curve, poor fit]. For `Cc1cccc(Cn2c(CN3CCC(C(=O)NC(C)C)CC3)cc3ccccc32)c1`, the Potency was inconclusive [inhibitor, single point]. For `COc1ccccc1NC(=O)CSc1nnc(-c2ccoc2C)n1CCc1ccccc1`, the Potency was active: 7.94 µM. In the case of `COc1ccc(C(NC(=O)C2CCN(CCOc3ccc(Cl)cc3Cl)CC2)c2ccccn2)cc1` (centres undefined), the Potency is reported as inconclusive [inhibitor, partial curve, poor fit].

Source: PubChem BioAssay AID624417 (National Center for Advancing Translational Sciences (NCATS), 2012)
Further: nearly all actives have a fitted effect of over 55% in size.
On the % scale 0 is the no-effect control and ±100 the full control effect; potency means the concentration at half of the fitted maximal effect; tags describe the fitted curve by direction and shape.
